From the RNAGym collection of RNA variant scans (doi:10.1073/pnas.2313332121)
Variants at the floor of the assay are shown more often than the library holds them.

B1: TPR 5TU (parent)
chain: GGAUCUUCUCGAUCUAACAAAAAAGACAAAUCUGCCACAAAGCUUGAGAGCAUCUUCGGAUGCAGAGGCGGCAGCCUUCGGUGGCGCGAUAGCGCCAACGUUCUCAACUAUGACACGCAAAACGCGUGCUCCGUUGAAUGGAGUUUAUCAUG

Variants of: B1
Assay: polymerase ribozyme fitness, log enrichment relative to wild type (log ratio); higher = more active; in vitro selection for triplet polymerase activity
How it was run: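 After PCR construction and transcription, each subunit's mutant library from a heterodimeric triplet polymerase ribozyme was annealed with a biotinylated primer, the partner subunit and triplets. Incubation was frozen, at −7 °C, and extended constructs were gel-excised, bound to streptavidin beads and amplified by RT-PCR, in one selection round done in triplicate. Fitness is the logarithm of a genotype's enrichment divided by that of the wild type, from inverse-variance-weighted replicate averages of Illumina-sequenced inputs and outputs. The base of the logarithm is 2, and genotypes needed ≥10 input reads and ≥1 read per output.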
With A20C G34U A47U A49C U53A U78C G86A G112C the “polymerase ribozyme fitness (log ratio)” value was at most -4.2.
For A20G A21C A49G U53A C75A C76A G86U, the “polymerase ribozyme fitness (log ratio)” value was at most -4.2.
In the case of A20G A29U C32U A49G G83C C87A C93A C95U G124U, the “polymerase ribozyme fitness (log ratio)” value is reported as at most -4.2.
For A20U U45A G124A, the “polymerase ribozyme fitness (log ratio)” value was -3.98.
In the case of A20U G46A G84A A142U, the “polymerase ribozyme fitness (log ratio)” value is reported as at most -4.2.
In the case of A20G A23G A49U C75U C103G A113G, the “polymerase ribozyme fitness (log ratio)” value is reported as at most -4.2.
In the case of A20G U55G U82C C93A A98U C105U G126C A142C, the “polymerase ribozyme fitness (log ratio)” value is reported as at most -4.2.
With A20G C87G A107G C125U the “polymerase ribozyme fitness (log ratio)” value was at most -4.2.
In the case of A20C C32G G59C C85U C95G A97G G140A U151C, the “polymerase ribozyme fitness (log ratio)” value is reported as at most -4.2.
For A20G G46U G92U, the “polymerase ribozyme fitness (log ratio)” value was -0.107.
With A20U C87U the “polymerase ribozyme fitness (log ratio)” value was -2.07.
With A20U U55A the “polymerase ribozyme fitness (log ratio)” value was -2.07.
For A20G G83A A107C G117A G136A, the “polymerase ribozyme fitness (log ratio)” value was at most -4.2.
With A20G A23U A52G G58C C85U A137U the “polymerase ribozyme fitness (log ratio)” value was at most -4.2.
For A20U A28U A30U G42C G86A A91U U101G C123A U146G, the “polymerase ribozyme fitness (log ratio)” value was at most -4.2.
For A20C A52G A142G, the “polymerase ribozyme fitness (log ratio)” value was -2.02.
For A20U C57G C85A G94A C131A U139C, the “polymerase ribozyme fitness (log ratio)” value was at most -4.2.
With A20U G42C C76A A91U A98U the “polymerase ribozyme fitness (log ratio)” value was at most -4.2.
For A20U G50C U56A G83U U101G, the “polymerase ribozyme fitness (log ratio)” value was at most -4.2.
For A21C A28C C36U A37U U56A C96A A107U G126C G140A, the “polymerase ribozyme fitness (log ratio)” value was at most -4.2.
In the case of A20U U53A C103G, the “polymerase ribozyme fitness (log ratio)” value is reported as at most -4.2.
For A20U A30G C38U G59C A60C A73U G92U, the “polymerase ribozyme fitness (log ratio)” value was at most -4.2.
With A20C C87A the “polymerase ribozyme fitness (log ratio)” value was at most -4.2.
In the case of A20C C87U, the “polymerase ribozyme fitness (log ratio)” value is reported as -1.36.
With A20U C38G C87A G124U the “polymerase ribozyme fitness (log ratio)” value was at most -4.2.
In the case of A20U A26G G86U C93G C103A, the “polymerase ribozyme fitness (log ratio)” value is reported as at most -4.2.
For A20C U61G, the “polymerase ribozyme fitness (log ratio)” value was -1.36.
With A20C G34U A47U G48U A60U U77C G88A C93G A115G A137U the “polymerase ribozyme fitness (log ratio)” value was at most -4.2.
With A20C G50C G67C G86U the “polymerase ribozyme fitness (log ratio)” value was at most -4.2.
For A20C G25C G92C C93U, the “polymerase ribozyme fitness (log ratio)” value was at most -4.2.
For A20G U55A A91U C96A C125G A142G, the “polymerase ribozyme fitness (log ratio)” value was at most -4.2.
For A20G A22U C87A C116U C132U, the “polymerase ribozyme fitness (log ratio)” value was at most -4.2.
For A20G A28U C96A U102G A107C G136A G140U, the “polymerase ribozyme fitness (log ratio)” value was at most -4.2.
In the case of A20G A21C G92A C108G, the “polymerase ribozyme fitness (log ratio)” value is reported as at most -4.2.
With A20G C79U C85U G124U U144C the “polymerase ribozyme fitness (log ratio)” value was at most -4.2.
For A20U G50A G86U, the “polymerase ribozyme fitness (log ratio)” value was at most -4.2.
With A21C A26G U55G G58C G74U U77A C103G C131A U134A G136A U144A the “polymerase ribozyme fitness (log ratio)” value was at most -4.2.
In the case of A19U U56A C75G C76U C95U, the “polymerase ribozyme fitness (log ratio)” value is reported as at most -4.2.
For A20U A26U C38A C93A G94C U135A C149A, the “polymerase ribozyme fitness (log ratio)” value was at most -4.2.
With A20C A23U A49C C93U C99G the “polymerase ribozyme fitness (log ratio)” value was at most -4.2.
In the case of A20C A97G, the “polymerase ribozyme fitness (log ratio)” value is reported as -0.83.
With A20G C57U C99A C108U the “polymerase ribozyme fitness (log ratio)” value was at most -4.2.
For A20U C85G, the “polymerase ribozyme fitness (log ratio)” value was -3.35.
In the case of A20U G46C U77A U78G C79G G83A, the “polymerase ribozyme fitness (log ratio)” value is reported as at most -4.2.
With A20G G25U A28U A29C C32G C54A A60G G84A G92U the “polymerase ribozyme fitness (log ratio)” value was at most -4.2.
For A19U U31G G74U A91U C103A A147C, the “polymerase ribozyme fitness (log ratio)” value was at most -4.2.
For A20C U45A G59C G92C C105U G117U U135C U139C G143A, the “polymerase ribozyme fitness (log ratio)” value was at most -4.2.
With A19U U44A A47C G58C G83A the “polymerase ribozyme fitness (log ratio)” value was at most -4.2.
In the case of A21C A23G C85G G141C, the “polymerase ribozyme fitness (log ratio)” value is reported as -3.89.
In the case of A20U A26G C27A C36U C93U A147U, the “polymerase ribozyme fitness (log ratio)” value is reported as at most -4.2.
With A20G A29U C35A U55A G126U the “polymerase ribozyme fitness (log ratio)” value was at most -4.2.
In the case of A19U U56A A60U A91G G94C, the “polymerase ribozyme fitness (log ratio)” value is reported as at most -4.2.
For A20C U55G G88U C96U C114G U135C, the “polymerase ribozyme fitness (log ratio)” value was at most -4.2.
With A20U C57U G70U G84C A89G U90C A120U U144C the “polymerase ribozyme fitness (log ratio)” value was at most -4.2.
With A20G C51U A52U A66U C132U the “polymerase ribozyme fitness (log ratio)” value was at most -4.2.
For A20C C54U U56G G68C C87U A138U, the “polymerase ribozyme fitness (log ratio)” value was at most -4.2.
In the case of A20C A23U A30U C35A G42U G50C G86A U127A G133U A142U, the “polymerase ribozyme fitness (log ratio)” value is reported as at most -4.2.
With A20U A29G C96A A106U the “polymerase ribozyme fitness (log ratio)” value was at most -4.2.
With A21C A26G G42A A89C A91G C93U the “polymerase ribozyme fitness (log ratio)” value was at most -4.2.
For A20G U33G A49G C75A G94A A147G, the “polymerase ribozyme fitness (log ratio)” value was at most -4.2.
For A21C A26C C85U A89C G136A G141A, the “polymerase ribozyme fitness (log ratio)” value was -4.04.
For A20C G48U G59A A119U U135A U146C, the “polymerase ribozyme fitness (log ratio)” value was -2.07.
For A20U U44A C93U G117A C118G G133A U139C, the “polymerase ribozyme fitness (log ratio)” value was at most -4.2.
With A21C A28G C38U C114G C125A the “polymerase ribozyme fitness (log ratio)” value was at most -4.2.
For A20U G59A G81A G88C C95U G136C, the “polymerase ribozyme fitness (log ratio)” value was at most -4.2.
For A20U A29C A60G C87G, the “polymerase ribozyme fitness (log ratio)” value was at most -4.2.
For A20C A30U U55G C96G C108A U145C, the “polymerase ribozyme fitness (log ratio)” value was at most -4.2.
In the case of A20U C57U C85G C96U, the “polymerase ribozyme fitness (log ratio)” value is reported as at most -4.2.
In the case of A19U U55A C63A A142U U148C, the “polymerase ribozyme fitness (log ratio)” value is reported as at most -4.2.
For A21C A29G C95G C96U C125G G133C U139A, the “polymerase ribozyme fitness (log ratio)” value was at most -4.2.
With A20G C27A G48C G50A U53C A73U C96A A137U the “polymerase ribozyme fitness (log ratio)” value was at most -4.2.
In the case of A20U U127A A150U, the “polymerase ribozyme fitness (log ratio)” value is reported as at most -4.2.
In the case of A20G C35U A40U G74A G94C A107C C129G U130A, the “polymerase ribozyme fitness (log ratio)” value is reported as at most -4.2.
With A20G G83U A91G C96A C149A the “polymerase ribozyme fitness (log ratio)” value was at most -4.2.
For A20G U44G G74A C85U G136A G140U, the “polymerase ribozyme fitness (log ratio)” value was at most -4.2.
In the case of A20U A60C A73G, the “polymerase ribozyme fitness (log ratio)” value is reported as -2.81.
With A20C C54U G70C C93A the “polymerase ribozyme fitness (log ratio)” value was at most -4.2.
With A20U G67U A97U C132G the “polymerase ribozyme fitness (log ratio)” value was at most -4.2.
In the case of A19U U44A U53A A73U C85U G136A, the “polymerase ribozyme fitness (log ratio)” value is reported as at most -4.2.
In the case of A20U G59A C93A, the “polymerase ribozyme fitness (log ratio)” value is reported as -4.07.
For A20G G46A A47U C75U U90G U109G, the “polymerase ribozyme fitness (log ratio)” value was at most -4.2.
In the case of A20U C54G A66U C85U, the “polymerase ribozyme fitness (log ratio)” value is reported as at most -4.2.
For A20C C103G, the “polymerase ribozyme fitness (log ratio)” value was -1.28.
